Assay results from the supplement of paper PMC8674133.
Recombinant human monoclonal antibodies (heavy:light variable regions). ELISA EC50 on the named antigen, from 10 µg/ml down; IC50 / IC90 against spike pseudovirus on 293T-ACE2 cells, 48 h; lower = stronger. Calls: IC50 above 1,000 ng/ml = non-neutralizing; EC50 above 2,000 ng/ml = non-binder. The source prints 1000 for neutralization that was not reached; it is given as >1000 ng/ml. A few antibodies were first reported in earlier work of the same group.

B1: C1403 (protein)
chain 1: QLQLQESGPGLVKPSETLSLTCTVSGGSITSSSYYWGWIRQPPGKGLEWIGSIYYSGSTYYNPSLKSRVTISVDTSKNQFSLKLSSVTAADTAVYYCARLLLYNSGWYGSGAMVPVIIDLWGRGTLVTVSS
chain 2: QSALTQPASVSGSPGQSITISCTGSSSDVGGYKYVSWYQHHPGKAPQLMIYEVSKRPSGVSNRFSGSKSGNTASLTISGLQAEDEADYYCSSYRGSSTLVFGGGTKLTVL
B2: C2021 (protein)
chain 1: EVQLVESGGGLVKPGRSLRLSCTASGFTFGDYAMSWFRQAPGKGLEWVGFIRSKAYGGTTEYAASVKGRFTISRDDSKSIAYLQMNSLKTEDTAVYYCTRDGDYCGGDCPEYFQHWGQGTLVTVSS
chain 2: SYELTQPPSVSVAPGQTARITCGGNNIGSKSVHWYQQKPGQAPVLVVYDDSDRPSGIPERFSGSNSGNTATLTISRVEAGDEADYYCQVWDSSSDHPQVVFGGGTKLTVL
B3: C1400 (protein)
chain 1: EVQLVESGGGLVQPGRSLRLSCAASGFTFDDYAIHWVRQAPGKGLEWVSGVTWNSGTIDYADSVKGRFIISRDNAKNSLYLQMIRLRPEDTALYYCAKDLGSGDGYNFSLDYWGQGTLVTVSS
chain 2: QSVLTQPPSVSGAPGQRVTISCTGSSSNIGAGYDVHWYQQPPGTAPKLLIYGNSNRPSGVPDRFSGSKSGTSASLAITGLQAEDEADYYCQSYDSSLSVVFGGGTKLTVL
B4: C1305 (protein)
chain 1: EVQLVESGGGLSQPGGSLRLSCAASEIVVSANYMSWVRQAPGKGLEWVSTLYPGGTTYYVDSVKGRFVISRDNSKNTLYLQMNTLRAEDTAVYYCARDLGYFDFWGQGTLVTVSS
chain 2: IRMTQSPSSLSASVGDRVTITCRASQGISNFLAWYQQKPGKAPNLLIYAASTLQSGVPSRFSGSGSGTDFTLTISSLQPQDVATYYCQKYNSAPPWTFGQGTKVEIK
B5: C1402 (protein)
chain 1: EVQLVESGGGLVQPGGSLRLSCAASGIIVSRNYMSWVRQAPGKGLEWVSIIYSGGSTFYADSVKGRFTISRHNSNNTLHLQMNSLRPEDTAVYYCARGGGYFYGMDVWGQGTTVTVSS
chain 2: not shown
B6: C1401 (protein)
chain 1: QLQLQESGRGLVKPSETLSLTCTVSGGSISGSSHYWGWIRQPPGKGLEWIGSIYHSGSTYYNPSLKSRVTISVDTSKNQFSLKLSSVTAADTAVYYCASRRPPFYHDSHDMDVWGQGTTVTVSS
chain 2: QSALTQPRSVSGSPGQSVTISCTGTSSDVGGYDYVSWFQQHPGKAPKLMIYDVTKRPSGVPDRFSGSKSGNTASLTISGLQAEDEADYFCCAFAGKYSPYVFGTGTKVTVL
B7: C1302 (protein)
chain 1: EVQLVESGGGLVQPGGSLRLSCAASGIIVSRNYMSWVRQAPGKGLEWIAIIYSGGSTFYADSVKGRFSISRDNSKNTLFLQMNSLRAEDTALYYCARDLHTYGLDYWGQGILVTVSS
chain 2: DIQLTQSPSFLSASVGDRVTITCRASQGISSDLAWYQQKPGKAPKLLIYGASTLQSGVPSRFSGSGSGTEFTLTIGSLQPEDFATYYCQHLNSYPPVTFGGGTKVEIK
B8: C1303 (protein)
chain 1: EVQLVESGGGLIQPGGSLRLSCAASGITVSSNYMSWVRQAPGKGPEWVSTLHSGGSTFYADSVKGRFTISRDDSKNTLYLQMNSLRAEDTAVYYCARGGGHYYGMDVWGQGTTVTVSS
chain 2: DIQLTQSPSFLSASVGDRVTITCRASQGISHYLAWYQQKPGKAPKLLIYGASTLQNGVPSRFSGSGSGTEFTLTISSLQPEDFATYYCQRLNSYPPITFGQGTRLEIK
B9: C1404 (protein)
chain 1: VQLVESGGGVVQPGRSLRLSCAASGFTFSSYGMHWVRQAPGKGLEWVAVISYDGSNKYYADSVKGRFTISRDNSKNTLYLQMNSLRAEDTAVYYCAKVGATYCGGGNCLRGYFDYWGQGTLVTVSS
chain 2: QSVLTQPPSASGTPGQRVTISCSGSSPIIGANTVNWYQQLPGTAPKLLIYSNNQRPSGVPDRFSGSKSGTSASLAISGLQSEDEADYYCASWGDSLVFGGGTKLTVL

Experiments:
[1] = target: SARS-CoV-2 Wuhan-Hu-1 spike pseudovirus; experiment: pseudovirus neutralization IC50; higher = weaker neutralization
Description: (§1)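 Single-round luciferase reporter pseudovirus mixed with antibody dilutions and put on 293T-ACE2 cells for 48 h; signal relative to no-antibody wells, four-parameter fit.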

[2] = target: SARS-CoV-2 Wuhan-Hu-1 spike pseudovirus; experiment: pseudovirus neutralization IC90; higher = weaker neutralization
Description: as §1

[3] = target: SARS-CoV-2 Wuhan-Hu-1 spike receptor-binding domain; experiment: ELISA binding EC50; higher = weaker binding; ELISA of recombinant human antibody on coated antigen, from 10 µg/ml in fourfold dilutions; four-parameter fit.

Binder | pseudovirus neutralization IC50 [1] | pseudovirus neutralization IC90 [2] | ELISA binding EC50 [3]
B1 | > 1 µg/mL | > 1 µg/mL | > 10 µg/mL
B2 | > 1 µg/mL | > 1 µg/mL | 0.00171 µg/mL
B3 | 0.00824 µg/mL | 0.13 µg/mL | 0.00344 µg/mL
B4 | 0.0101 µg/mL | 0.175 µg/mL | 0.0029 µg/mL
B5 | > 1 µg/mL | > 1 µg/mL | 2 µg/mL
B6 | > 1 µg/mL | > 1 µg/mL | 0.00268 µg/mL
B7 | 0.00471 µg/mL | 0.0311 µg/mL | 0.00166 µg/mL
B8 | 0.0293 µg/mL | 0.147 µg/mL | 0.00141 µg/mL
B9 | > 1 µg/mL | > 1 µg/mL | > 10 µg/mL
